Test results taken from PubChem BioAssay AID588855 (National Center for Advancing Translational Sciences (NCATS), 2011).
In all, about 410,000 compounds went through this assay and about 5,000 (1.2%) were called active. The shares of active, inactive and inconclusive entries below differ from those in the screen. Calls follow the shape of the dose curve; as a rule, active = well fitted inhibition curve with a large enough effect; inconclusive = small, poorly fitted or top-dose-only effect; inactive = no such curve, though single readings can be large or run the other way. Where the call is inconclusive, the potency comes from a doubtful curve fit.
Potency is read from the fitted curve at half-maximal effect; tags tell the direction and shape of the fitted curve.

Assay: qHTS for Inhibitors of TGF-b; also: nearly all actives have a fitted effect of over 65% in size
Conditions: HepG2 CAGA-GFP TGF-b/SMAD3 reporter, GFP fluorescence, 18 h, TGF-beta stimulated, 500 pg/mL final; series mostly up to 46.1 µM
Outline: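 HEPG2 CAGA-GFP cells (1000/well, DMEM with 1% FBS) were pre-incubated 2 h at 37 degrees C, given compound by pin tool, then stimulated with TGF-beta at 500 pg/mL final for 18 h before per-cell GFP fluorescence imaging.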
With COc1ccc(C(=O)Nc2ccccc2C(=O)N/N=C/c2ccccn2)cc1OC the Potency was inconclusive: 12.6 µM [inhibitor, partial curve, poor fit].
In the case of c1ccc(CNc2nc(NCCOc3ccccc3)c3sccc3n2)cc1, the Potency is reported as inconclusive: 22.4 µM [inhibitor, single point].
In the case of S=C(NCCc1ccccn1)Nc1ccc(Cl)cc1, the Potency is reported as inconclusive: 10 µM [inhibitor, single point].
In the case of Cn1nnnc1SCCCNCc1ccccc1OCc1ccccc1Cl, the Potency is reported as inconclusive: 10 µM [inhibitor, partial curve, poor fit].
With COc1ccc(-c2noc(CSc3nnc(C)n3-c3ccc(OC)cc3)n2)cc1 the Potency was inconclusive: 0.562 µM [inhibitor, full curve, poor fit].
With O=C(c1ccco1)N1CCN(C(=O)C2CC2)CC1 the Potency was “inactive”.
With O=c1cc(N2CCOCC2)[nH]c(=O)n1-c1ccc(Br)cc1 the Potency was inconclusive: 35.5 µM [inhibitor, single point].
For O=C(NCc1ccccn1)c1ccc(NS(=O)(=O)c2cccc(Cl)c2)cc1, the Potency was “inactive”.
For Cc1cccc(C(=O)Nc2ccc(C(=O)Nc3ccc(O)cc3)cc2)c1, the Potency was “inactive”.
With CCCc1ccc2oc(C(=O)N3CCC[C@H]3CO)c(C)c2c1 the Potency was “inactive”.
For NC(=O)c1ccc(NC(=O)CSc2nncn2-c2ccccc2)cc1, the Potency was “inactive”.
For COC(=O)c1c(NC(=O)C2C3CCC(O3)C2C(=O)O)sc2c1CCCCCC2 (configuration not stated), the Potency was inconclusive: 11.2 µM [inhibitor, partial curve].
With COc1cc(OC)cc(N2C(=O)N(CC(=O)c3ccc(F)cc3)c3ccccc3S2(=O)=O)c1 the Potency was “inactive”.
With COc1ccc(CN2CCc3nc(SCC(=O)Nc4cc(C)cc(C)c4)[nH]c(=O)c3C2)cc1 the Potency was inconclusive: 35.5 µM [inhibitor, single point].
For CCCCc1nc(NCCNC(=O)c2ccccc2)c(C#N)c2c1CSC(C)(C)C2, the Potency was inconclusive: 35.5 µM [inhibitor, single point].
For C=CCn1nc([N+](=O)[O-])nc1Sc1cccc2cccnc12, the Potency was active: 3.16 µM.
With Cc1ccc(Cn2c(SCc3ccc(C(=O)N4CCCCCC4)cc3)nc3ccncc32)cc1 the Potency was active: 10 µM.
With COC(=O)c1cc(O)cc(OC)c1C(=O)c1c(O)cc(C)cc1O the Potency was inconclusive: 10 µM [inhibitor, partial curve].
For COC(=O)NNC(=S)NCc1ccccc1, the Potency was inconclusive: 5.62 µM [inhibitor, single point].
With O=C(NCCCN1CCCC1)c1cccc(N2CCCC2=O)c1 the Potency was inconclusive: 11.2 µM [inhibitor, single point].
For COc1ccc(-c2c[n+]3c(n2-c2ccc(C)cc2)CCCCC3)cc1, the Potency was inconclusive: 10 µM [inhibitor, partial curve].
With O=C(CSc1nnnn1-c1cccc(O)c1)NC1CC1 the Potency was inconclusive: 5.62 µM [inhibitor, single point].
For COc1ccc(-c2oc3cccnc3c2C#CC2(O)CCCCC2)cc1, the Potency was inconclusive: 35.5 µM [inhibitor, single point].
In the case of O=C(c1cccs1)N1C[C@@H](n2cc(C3CC3)nn2)[C@H](O)C[C@@H]1c1ccc(Cl)cc1, the Potency is reported as “inactive”.
For CCCCCSc1nc2sc3c(c2c(=O)n1-c1ccccc1)CCN(C(C)=O)C3, the Potency was inconclusive: 11.2 µM [inhibitor, single point].
With CN(C(=O)CCl)C1CCCc2ccccc21 (configuration not stated) the Potency was inconclusive: 35.5 µM [inhibitor, single point].
In the case of Cc1ccccc1NC(=O)Nc1ccccc1Br, the Potency is reported as “inactive”.
In the case of COc1cc(OC)c2c(c1)C(=O)OC2c1cc(OC)c(OC)cc1C (configuration not stated), the Potency is reported as “inactive”.
For Oc1ccc(N=Nc2c(O)ccc3ccccc23)cc1, the Potency was inconclusive: 20 µM [inhibitor, single point].
For CCOC(=O)C(C)(C)N(Cc1ccc(C)cc1)S(=O)(=O)c1ccc(Cl)c([N+](=O)[O-])c1, the Potency was inconclusive: 15.8 µM [inhibitor, partial curve, poor fit].
In the case of COc1ccc(CCC(=O)OCC(=O)NCc2ccccc2)cc1, the Potency is reported as “inactive”.
For O=C(Nc1ccc(Oc2cccc(C(F)(F)F)c2)nc1)c1ccccc1, the Potency was “inactive”.
With CCOC(=O)C1CCN(C(=O)COc2ccc(N(C)S(=O)(=O)c3cccs3)cc2)CC1 the Potency was inconclusive: 2.82 µM [inhibitor, single point].
With CCOc1ccc(CCNC(=O)c2cnc3sc(N4CCC(C)CC4)nn3c2=O)cc1 the Potency was inconclusive: 3.16 µM [inhibitor, single point].
In the case of COc1cc(NC(=O)COc2ccc(Cl)cc2)ccc1-c1cc2ccccc2oc1=O, the Potency is reported as inconclusive: 17.8 µM [inhibitor, partial curve, poor fit].
For CCCc1cc(C(=O)NNC(=S)NCc2ccccc2)cs1, the Potency was inconclusive: 11.2 µM [inhibitor, partial curve].
For O=C(/C=C/c1ccccc1F)c1cccc([N+](=O)[O-])c1, the Potency was inconclusive: 22.4 µM [inhibitor, single point].
In the case of CCOc1cc(OCC)cc(C(=O)NC(=S)Nc2cccc(C(F)(F)F)c2)c1, the Potency is reported as “inactive”.
For O=C(CSc1ccccn1)Nc1nc2ccccc2s1, the Potency was “inactive”.
With CS(=O)(=O)Nc1ccc(OCc2ccccc2)cc1 the Potency was “inactive”.
In the case of NC(=NC(=O)c1ccc(Cl)cc1)N1N=CCC1c1ccccc1 (configuration not stated), the Potency is reported as “inactive”.
With COc1ccc(-c2noc(-c3ccc(N4CCN(C)CC4)c([N+](=O)[O-])c3)n2)cc1OC the Potency was inconclusive: 11.2 µM [inhibitor, partial curve, poor fit].
In the case of CCCCC(=O)Nc1ccc(C(=O)Nc2ccc(S(=O)(=O)Nc3ccc(C)cc3)cc2)cc1, the Potency is reported as “inactive”.
In the case of CN1C(=O)C(Cl)(Cl)C(=O)c2ccccc21, the Potency is reported as inconclusive: 2.82 µM [inhibitor, partial curve, poor fit].
For CCOc1cc(NC(=O)c2ccccn2)c(OCC)cc1NC(=O)c1ccccc1, the Potency was “inactive”.
For Cc1cc(Br)ccc1NC(=O)C1CCN(S(=O)(=O)c2cccc3nsnc23)CC1, the Potency was inconclusive: 22.4 µM [inhibitor, single point].
With CCOC(=O)Nc1ccc2c(c1)N(C(=O)CCN(C)C)c1ccccc1S2 the Potency was inconclusive: 15.8 µM [inhibitor, single point].
